# According to the supplement of paper PMC7726561:
# In all, about 1,400 sequences were measured (“thermal melting temperature (Tm) of peptide-HLA complex”: median about 60, lowest 2% from about 45 on). Some of the results follow.
# B1: unnamed (peptide)
# chain: LPRVTELAL
# B2: unnamed (peptide)
# chain: IPQPTPASL
# B3: unnamed (peptide)
# chain: NPEKRYNVL
# B4: unnamed (peptide)
# chain: APRPDRLVNRL
# B5: unnamed (peptide)
# chain: IPAGERPTI
# B6: unnamed (peptide)
# chain: LPASWRPVTL
# B7: unnamed (peptide)
# chain: VPKYWGSGL
# B8: unnamed (peptide)
# chain: FPKNIFAEL
# B9: unnamed (peptide)
# chain: PRVPTHTL
# B10: unnamed (peptide)
# chain: NPKRQTLVF
# B11: unnamed (peptide)
# chain: TPFKGGTL
# B12: unnamed (peptide)
# chain: SPSPAQAQTL
# B13: unnamed (peptide)
# chain: RPFSQGIVIL
# B14: unnamed (peptide)
# chain: TPAVIRISV
# B15: unnamed (peptide)
# chain: RPTEGVQAL
# B16: unnamed (peptide)
# chain: RPKYQFLSL
# B17: unnamed (peptide)
# chain: TPLGTRSGL
# B18: unnamed (peptide)
# chain: HPYPPGPGVAL
# B19: unnamed (peptide)
# chain: APSGTRVVQVL
# B20: unnamed (peptide)
# chain: GPLFRNSQL
# B21: unnamed (peptide)
# chain: FIRVSGSEL
# B22: unnamed (peptide)
# chain: HPVVSSVPL
# B23: unnamed (peptide)
# chain: RPQTGLSFL
# B24: unnamed (peptide)
# chain: LPRFFGTAV
# B25: unnamed (peptide)
# chain: SPNSQALIL
# B26: unnamed (peptide)
# chain: KPVYPGQTL
# B27: unnamed (peptide)
# chain: TPSPIIQQL
# B28: unnamed (peptide)
# chain: IPRSITVLVE
# B29: unnamed (peptide)
# chain: IPKLPAVSF
# B30: unnamed (peptide)
# chain: WVRPDLGEL
# B31: unnamed (peptide)
# chain: LPAWPHRGL
# B32: unnamed (peptide)
# chain: IPLSGRNPL
# B33: unnamed (peptide)
# chain: IPQRPYMSL
# B34: unnamed (peptide)
# chain: KIRNFVVVF
# B35: unnamed (peptide)
# chain: KPRTVFSDYL
# B36: unnamed (peptide)
# chain: RPFHGWTSL
# B37: unnamed (peptide)
# chain: RPFTRHQSF
# B38: unnamed (peptide)
# chain: VPRVPTHTL
# B39: unnamed (peptide)
# chain: IPRSITVLV
# B40: unnamed (peptide)
# chain: LPQPNRTSSVL
# B41: unnamed (peptide)
# chain: APIDRVGQT
# B42: unnamed (peptide)
# chain: LPSKPSSTL
# B43: unnamed (peptide)
# chain: LPRKAGVFSDL
# B44: unnamed (peptide)
# chain: RVQKIRPSI
# B45: unnamed (peptide)
# chain: SPRGAGWLF
# B46: unnamed (peptide)
# chain: SPSSKYVKL
# B47: unnamed (peptide)
# chain: PYPRPIHL
# B48: unnamed (peptide)
# chain: DPMPAAKRYPL
# B49: unnamed (peptide)
# chain: SPVGRTLRV
# B50: unnamed (peptide)
# chain: QPRNPLEEL
# B51: unnamed (peptide)
# chain: KPVSLGQAL
# B52: unnamed (peptide)
# chain: APWSGRFYSL
# B53: unnamed (peptide)
# chain: APSGGRLLSA
# B54: unnamed (peptide)
# chain: RPYAAGGKKL
# B55: unnamed (peptide)
# chain: NPDIMRQTL
# B56: unnamed (peptide)
# chain: APKPSSRPSL
# Biological target: HLA-B*07:02
# Experiment: thermal melting temperature (Tm) of peptide-HLA complex; higher = more thermostable pHLA complex
# Settings: C1R-B*07:02
# 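Further: cell lysates heated 10 min at 37–73 °C, remaining pHLA pulled down with pan-class I antibody, peptides quantified by DIA-MS versus 37 °C, Tm where half the complex is lost.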
row,Sequence,thermal melting temperature [°C]
1,B1,62.1
2,B2,62.2
3,B3,56.3
4,B4,57.3
5,B5,59.9
6,B6,60.3
7,B7,60.3
8,B8,62.8
9,B9,62.6
10,B10,53.7
11,B11,52.2
12,B12,61.1
13,B13,48.7
14,B14,60.2
15,B15,54.3
16,B16,58.1
17,B17,55.6
18,B18,55.4
19,B19,41.4

row,Sequence,thermal melting temperature [°C]
1,B20,59.9
2,B21,61.4
3,B22,57.8
4,B23,61.7
5,B24,45.7
6,B25,61.7
7,B26,60
8,B27,60.1
9,B28,61.2
10,B29,63.1
11,B30,60.4
12,B31,60.3
13,B32,62.1
14,B33,58.9
15,B34,60.9
16,B35,58.3
17,B36,56.5
18,B37,53
19,B38,62.6

row,Sequence,thermal melting temperature [°C]
1,B39,62.4
2,B40,52.8
3,B41,62.9
4,B42,58.1
5,B43,56.3
6,B44,56.7
7,B45,63.6
8,B46,56.3
9,B47,60.3
10,B48,54.2
11,B49,52.8
12,B50,58.4
13,B51,60.5
14,B52,61.1
15,B53,60.1
16,B54,57.8
17,B55,51.9
18,B56,54.5
